# Article PMC4274898
# No constants are given. Whether binding was seen depends on the method and setting. Some binding calls cover weakened binding; strength is not graded here.
# T1: ARF11 (Arabidopsis thaliana) (UniProt Q9ZPY6)
# T1 sequence: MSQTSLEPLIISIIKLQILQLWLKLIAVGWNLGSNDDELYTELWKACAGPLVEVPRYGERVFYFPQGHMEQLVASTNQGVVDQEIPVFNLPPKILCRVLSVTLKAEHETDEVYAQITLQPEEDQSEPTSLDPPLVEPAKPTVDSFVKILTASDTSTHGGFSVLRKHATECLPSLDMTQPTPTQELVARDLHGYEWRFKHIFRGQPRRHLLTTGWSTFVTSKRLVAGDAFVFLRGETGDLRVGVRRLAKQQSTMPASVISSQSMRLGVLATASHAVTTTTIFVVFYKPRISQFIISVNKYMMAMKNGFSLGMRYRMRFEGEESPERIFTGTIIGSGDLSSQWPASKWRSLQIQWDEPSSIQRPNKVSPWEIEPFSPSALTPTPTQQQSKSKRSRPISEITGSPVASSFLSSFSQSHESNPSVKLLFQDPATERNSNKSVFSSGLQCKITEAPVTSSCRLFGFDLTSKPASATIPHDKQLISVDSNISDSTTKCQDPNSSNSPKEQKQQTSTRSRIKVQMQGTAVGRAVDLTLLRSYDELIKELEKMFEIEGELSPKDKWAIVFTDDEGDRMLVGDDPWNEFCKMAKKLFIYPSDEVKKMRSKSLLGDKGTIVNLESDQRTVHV
# T2: ARF5 (Arabidopsis thaliana) (UniProt P93024)
# T2 sequence: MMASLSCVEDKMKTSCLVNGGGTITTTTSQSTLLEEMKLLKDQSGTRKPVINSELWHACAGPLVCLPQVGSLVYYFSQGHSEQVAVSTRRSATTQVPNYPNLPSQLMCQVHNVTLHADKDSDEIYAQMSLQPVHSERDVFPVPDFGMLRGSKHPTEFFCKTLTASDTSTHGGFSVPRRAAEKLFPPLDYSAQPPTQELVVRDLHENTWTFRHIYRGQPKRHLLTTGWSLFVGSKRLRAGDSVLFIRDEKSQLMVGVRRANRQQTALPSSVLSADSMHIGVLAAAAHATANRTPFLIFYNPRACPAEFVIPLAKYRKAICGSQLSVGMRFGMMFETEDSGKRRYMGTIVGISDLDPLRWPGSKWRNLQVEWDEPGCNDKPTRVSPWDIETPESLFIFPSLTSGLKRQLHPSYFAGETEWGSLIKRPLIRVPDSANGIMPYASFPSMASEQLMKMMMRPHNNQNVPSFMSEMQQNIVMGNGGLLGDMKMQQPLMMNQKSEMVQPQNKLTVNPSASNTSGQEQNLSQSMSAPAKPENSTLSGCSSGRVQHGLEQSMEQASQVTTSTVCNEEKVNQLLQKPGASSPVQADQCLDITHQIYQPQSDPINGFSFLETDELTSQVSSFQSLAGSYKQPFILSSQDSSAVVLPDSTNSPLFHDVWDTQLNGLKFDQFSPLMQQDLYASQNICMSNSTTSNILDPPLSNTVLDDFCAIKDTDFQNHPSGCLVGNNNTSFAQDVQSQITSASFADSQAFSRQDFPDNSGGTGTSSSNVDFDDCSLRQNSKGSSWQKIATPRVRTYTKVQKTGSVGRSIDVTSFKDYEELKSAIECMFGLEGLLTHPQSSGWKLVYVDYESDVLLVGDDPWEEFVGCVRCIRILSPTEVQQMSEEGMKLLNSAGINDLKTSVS
# T3: ARF6 (Arabidopsis thaliana) (UniProt Q9ZTX8)
# T3 sequence: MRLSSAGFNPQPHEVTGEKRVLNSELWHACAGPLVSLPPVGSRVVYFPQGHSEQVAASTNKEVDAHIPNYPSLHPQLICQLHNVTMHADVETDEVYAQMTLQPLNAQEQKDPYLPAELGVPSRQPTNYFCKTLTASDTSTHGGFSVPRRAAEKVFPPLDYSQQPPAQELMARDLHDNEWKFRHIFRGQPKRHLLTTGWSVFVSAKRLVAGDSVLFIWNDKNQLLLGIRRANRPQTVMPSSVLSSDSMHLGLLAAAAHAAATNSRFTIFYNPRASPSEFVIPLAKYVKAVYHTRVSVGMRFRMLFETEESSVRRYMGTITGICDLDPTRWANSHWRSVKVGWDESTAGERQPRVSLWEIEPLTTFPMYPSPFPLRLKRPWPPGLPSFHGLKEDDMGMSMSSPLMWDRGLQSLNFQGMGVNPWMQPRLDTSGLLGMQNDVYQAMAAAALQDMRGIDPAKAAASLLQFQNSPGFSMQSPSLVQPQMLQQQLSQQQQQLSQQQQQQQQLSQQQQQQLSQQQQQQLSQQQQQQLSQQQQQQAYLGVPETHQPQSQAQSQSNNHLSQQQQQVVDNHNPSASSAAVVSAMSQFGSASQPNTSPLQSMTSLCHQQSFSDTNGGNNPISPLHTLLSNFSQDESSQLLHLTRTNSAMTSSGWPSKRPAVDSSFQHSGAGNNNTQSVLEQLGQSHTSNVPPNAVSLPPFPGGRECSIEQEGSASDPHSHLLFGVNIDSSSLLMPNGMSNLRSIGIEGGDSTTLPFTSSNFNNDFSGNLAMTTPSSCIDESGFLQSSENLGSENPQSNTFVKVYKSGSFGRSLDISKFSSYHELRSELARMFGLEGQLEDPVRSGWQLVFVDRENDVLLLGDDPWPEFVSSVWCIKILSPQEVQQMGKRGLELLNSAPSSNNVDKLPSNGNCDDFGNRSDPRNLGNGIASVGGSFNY
# Experiments:
# Experiment in all cases: two-hybrid; S. cerevisiae AH109 co-transformed with pGBKT7-ARF (bait) and pGADT7-Aux/IAA (prey); growth on SD/-Ade-His-Leu-Trp against SD/-Leu/-Trp; at least 10 independent colonies; serial dilutions for strength
# [1] = molecular target: T1, ARF11 (Arabidopsis thaliana)
# [2] = molecular target: T2, ARF5 (Arabidopsis thaliana)
# [3] = molecular target: T3, ARF6 (Arabidopsis thaliana)
Binder,binding [1],binding [2],binding [3]
"Aux/IAA16 (protein, UniProt O24407 1-236) MINFEATELRLGLPGGNHGGEMAGKNNGKRGFSETVDLKLNLSSTAMDSVSKVDLENMKEKVVKPPAKAQVVGWPPVRSFRKNVMSGQKPTTGDATEGNDKTSGSSGATSSASACATVAYVKVSMDGAPYLRKIDLKLYKTYQDLSNALSKMFSSFTIGNYGPQGMKDFMNESKLIDLLNGSDYVPTYEDKDGDWMLVGDVPWEMFVDSCKRIRIMKGSEAIGLAPRALEKCKNRS",no binding,binds,binds
"Aux/IAA18 (protein, UniProt O24408 1-267) MEGYSRNGEISPKLLDLMIPQERRNWFHDEKNSVFKTEEKKLELKLGPPGEEDDDESMIRHMKKEPKDKSILSLAGKYFSPSSTKTTSHKRTAPGPVVGWPPVRSFRKNLASGSSSKLGNDSTTSNGVTLKNQKCDAAAKTTEPKRQGGMFVKINMYGVPIGRKVDLSAHNSYEQLSFTVDKLFRGLLAAQRDFPSSIEDEKPITGLLDGNGEYTLTYEDNEGDKMLVGDVPWQMFVSSVKRLRVIKTSEISSALTYGNGKQEKMRR",no binding,binds,binds
"Aux/IAA19 (protein, UniProt O24409 1-197) MEKEGLGLEITELRLGLPGRDVAEKMMKKRAFTEMNMTSSGSNSDQCESGVVSSGGDAEKVNDSPAAKSQVVGWPPVCSYRKKNSCKEASTTKVGLGYVKVSMDGVPYLRKMDLGSSQGYDDLAFALDKLFGFRGIGVALKDGDNCEYVTIYEDKDGDWMLAGDVPWGMFLESCKRLRIMKRSDATGFGLQPRGVDE",no binding,binds,binds
"Aux/IAA20 (protein, UniProt O24410 1-175) MGRGRSSSSSSIESSSKSNPFGASSSTRNLSTDLRLGLSFGTSSGTQYFNGGYGYSVAAPAVEDAEYVAAVEEEEENECNSVGSFYVKVNMEGVPIGRKIDLMSLNGYRDLIRTLDFMFNASILWAEEEDMCNEKSHVLTYADKEGDWMMVGDVPWEMFLSTVRRLKISRANYHY",no binding,binds,binds
"Aux/IAA26 (protein, UniProt Q8LAL2 1-269) MEGCPRNREIGPKLLDLIPQGRKWYQEDKNNTDQEKKLELRLGPPGGDEEDHSAIKKKNTEIRNIKKETEDKSFHCFNGNHFSPSNKTTSVPHISQKRTAPGPVVGWPPVRSFRKNLASTSSSKLGNESSHGGQINKSDDGEKQVETKKEGMFVKINMDGVPIGRKVDLNAYNSYEQLSFVVDKLFRGLLAAQRDISDGQGEEKPIIGLLDGKGEFTLTYEDNEGDKMLVGDVPWQMFVSSVKRLRVIKSSEISSALTFGCSKQEKMMH",no binding,binds,binds
"Aux/IAA27 (protein, UniProt Q9ZSY8 1-305) MSVSVAAEHDYIGLSEFPTMEATTMSDKTKTRDNNNGLNFKATELRLGLPGSESPERVDSRFLALNKSSCPVSGAKRVFSDAINDSNKWVFSPGSTTATGDVGSGSGPRTSVVKDGKSTTFTKPAVPVKEKKSSATAPASKAQVVGWPPIRSFRKNSMASSQSQKPGNNSETEEAEAKSGPEQPCLYVKVSMEGAPYLRKIDLKTYKSYLELSSALEKMFSCFTIGQFGSHGGCGRDGLNESRLTDLLRGSEYVVTYEDKDSDWMLVGDVPWEMFICSCKKLRIMKSSEAIGLAPRVMEKCRSRN",no binding,binds,binds
"Aux/IAA28 (protein, UniProt Q9XFM0 1-175) MEEEKRLELRLAPPCHQFTSNNNINGSKQKSSTKETSFLSNNRVEVAPVVGWPPVRSSRRNLTAQLKEEMKKKESDEEKELYVKINMEGVPIGRKVNLSAYNNYQQLSHAVDQLFSKKDSWDLNRQYTLVYEDTEGDKVLVGDVPWEMFVSTVKRLHVLKTSHAFSLSPRKHGKE",no binding,binds,binds
"Aux/IAA29 (protein, UniProt Q93WC4 1-251) MELDLGLSLSPHKSSKLGFNFDLNKHCAIEGAASCLGTEKLRFEATFGLGNVEENCYMPKQRLFALNGQPNEEDEDPLESESSIVYDDEEENSEVVGWPPVKTCMIKYGSYHHRHIRNHHHCPYHHRGRRITAMNNNISNPTTATVGSSSSSSISSRSSMYVKVKMDGVAIARKVDIKLFNSYESLTNSLITMFTEYEDCDREDTNYTFTFQGKEGDWLLRGDVTWKIFAESVHRISIIRDRPCAYTRCLF",no binding,binds,binds
"Aux/IAA30 (protein, UniProt Q9M1R4 1-172) MGRGRSSSSSSIESSCKSNPFGVSSSNTRNLSTDLRLGLSFGSSSGQYYNGGDNHEYDGVGAAEEMMIMEEEEQNECNSVGSFYVKVNMEGVPIGRKIDLLSLNGYHDLITTLDYMFNASILWAEEEDMCSEKSHVLTYADKEGDWMMVGDVPWEMFLSSVRRLKISRAYHY",no binding,binds,binds
"Aux/IAA3 (protein, UniProt Q38822 1-189) MDEFVNLKETELRLGLPGTDNVCEAKERVSCCNNNNKRVLSTDTEKEIESSSRKTETSPPRKAQIVGWPPVRSYRKNNIQSKKNESEHEGQGIYVKVSMDGAPYLRKIDLSCYKGYSELLKALEVMFKFSVGEYFERDGYKGSDFVPTYEDKDGDWMLIGDVPWEMFICTCKRLRIMKGSEAKGLGCGV",no binding,binds,binds
"Aux/IAA31 (protein, UniProt Q8H174 1-158) MEVSNSCSSFSSSSVDSTKPSPSESSVNLSLSLTFPSTSPQREARQDWPPIKSRLRDTLKGRRLLRRGDDTSLFVKVYMEGVPIGRKLDLCVFSGYESLLENLSHMFDTSIICGNRDRKHHVLTYEDKDGDWMMVGDIPWDMFLETVRRLKITRPERY",no binding,binds,binds
